Data taken from publication PMC9911399, “Two distinct binding modes provide the RNA-binding protein RbFox with extraordinary sequence specificity”.
Numbering of substitutions follows the chain as printed; changes in the protein carry UniProt numbers. Some of the results follow.

T1: RBFOX1 RRM RbFoxmut (Fox-RRM*) (Homo sapiens, UniProt Q9NWB1 109-208, R118D;E147R;N151S;E152T)
T1 sequence: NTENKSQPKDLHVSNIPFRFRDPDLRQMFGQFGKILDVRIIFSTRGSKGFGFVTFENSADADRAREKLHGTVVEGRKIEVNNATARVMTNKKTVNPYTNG

B1: GCGCUGG (DNA:RNA)
RNA: GGGAGACCGGAAUUCAGAUUGUCCGCGCUGGUUAAAUCCCGUCGUAGCCACCA
DNA 1: CAATCTGAATTCCGGTCTCCC
DNA 2: TGGTGGCTACGACGGGATT
B2: GAUUGGC (DNA:RNA)
RNA: B1 RNA with C26A, G27U, C28U, U29G, G31C
DNA 1: CAATCTGAATTCCGGTCTCCC
DNA 2: TGGTGGCTACGACGGGATT
B3: CAAGCGG (DNA:RNA)
RNA: B1 RNA with G25C, C26A, G27A, C28G, U29C
DNA 1: CAATCTGAATTCCGGTCTCCC
DNA 2: TGGTGGCTACGACGGGATT
B4: CGCUUAA (DNA:RNA)
RNA: B1 RNA with G25C, C26G, G27C, C28U, G30A, G31A
DNA 1: CAATCTGAATTCCGGTCTCCC
DNA 2: TGGTGGCTACGACGGGATT
B5: AAUCGAG (DNA:RNA)
RNA: B1 RNA with G25A, C26A, G27U, U29G, G30A
DNA 1: CAATCTGAATTCCGGTCTCCC
DNA 2: TGGTGGCTACGACGGGATT
B6: GGUUAGU (DNA:RNA)
RNA: B1 RNA with C26G, G27U, C28U, U29A, G31U
DNA 1: CAATCTGAATTCCGGTCTCCC
DNA 2: TGGTGGCTACGACGGGATT
B7: CGAAAAU (DNA:RNA)
RNA: GGGAGACCGGAAUUCAGAUUGUCCCGAAAAUUUAAAUCCCGUCGUAGCCACCA
DNA 1: CAATCTGAATTCCGGTCTCCC
DNA 2: TGGTGGCTACGACGGGATT
B8: AAAGCCC (DNA:RNA)
RNA: B7 RNA with C25A, G26A, A28G, A29C, A30C, U31C
DNA 1: CAATCTGAATTCCGGTCTCCC
DNA 2: TGGTGGCTACGACGGGATT
B9: UACUUUU (DNA:RNA)
RNA: B7 RNA with C25U, G26A, A27C, A28U, A29U, A30U
DNA 1: CAATCTGAATTCCGGTCTCCC
DNA 2: TGGTGGCTACGACGGGATT

Each binder was assayed against T1, RBFOX1 RRM RbFoxmut (Fox-RRM*) (assay: EMSA; HiTS-Eq, 1 nM pool, 10 min; buffer printed only for the single-RNA assays: 10 mM Tris pH 7.5, 150 mM NaCl, 3.4 mM EDTA, 0.001% NP-40, 30 C). Conditions: tags: His6 N-terminal (pET28a); label: 5' 32P.
In short: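 Purified RbFox RRM (wild type or mutant) was equilibrated for 10 min in 50 µL with 1 nM of a 5′-radiolabelled pool of RNA with 7 randomized nucleotides, its flanks annealed to DNA oligonucleotides, across increasing protein concentrations. Free RNA was separated by 8% native PAGE, excised, reverse-transcribed, PCR-barcoded and sequenced on an Illumina HiSeq 2500. Relative association constants came from read-count changes of each variant against the control reaction, normalised to the cognate motif.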

Binder	binding signal
B1	0.111 KA relative to UGCAUGU
B2	0.145 KA relative to UGCAUGU
B3	0.0716 KA relative to UGCAUGU
B4	0.106 KA relative to UGCAUGU
B5	0.0786 KA relative to UGCAUGU
B6	0.123 KA relative to UGCAUGU
B7	0.0737 KA relative to UGCAUGU
B8	0.066 KA relative to UGCAUGU
B9	0.097 KA relative to UGCAUGU
